The text below walks through data of PubChem BioAssay AID463173 (ICCB-Longwood Screening Facility, Harvard Medical School, 2010).

About 4,300 (8.3%) of roughly 52,000 compounds were called active. Rule as the data show it: active = survival mostly below about 52% (no sharp cut-off); inactive = mostly above about 56%. The list shows a part of the results.

For this assay, the system named is DeltatarO mutant. The experiment in a line: S. aureus survival, RN4220 and DeltatarO strains – OD600, teichoic acid synthesis inhibitors, primary screen (AID 463173). To be noted: S. aureus RN4220 wild type/DeltatarO growth, OD600, 18 h, active compounds read low, screened at 18.75 µg/mL (by protocol).
Regarding `Cc1cc2c(cc1S(=O)(=O)Nc1ccc(C(C)C)cc1)OCCN2C`, the survival was inactive: 87%.

As for `Cc1ccc(O)c(NC(=O)CCS(=O)(=O)c2nc(-c3cccs3)cc(C(F)(F)F)n2)c1`, the survival was inactive: 51%. To `Cc1cccc(-n2c(C)cc(C(=O)C(=O)Nc3nncs3)c2C)c1` belongs inactive: 85%. In the case of `COc1ccccc1NC(=O)c1cc2c(=O)n(Cc3cccs3)ccc2nc1C` it was inactive: 95%; in that of `Cc1ccc(C(C)C)c(OCC(=O)Nc2cc(-c3nc4ccccc4[nH]3)ccc2C)c1`, inactive: 71%; in that of `O=C(Nc1ccc(S(=O)(=O)N2CCCCC2)cc1)C(F)(F)F`, active: 58%. Consider `O=C(Nc1ccccc1F)c1cnc(N2CCCCC2)c2ccccc12`, for which the survival is inactive: 99%. To `Cc1oc(-c2ccccc2F)nc1Cn1c(SCc2cccc(C(F)(F)F)c2)nc2ccncc21` belongs inactive: 60%. To `O=C1c2ccccc2NC2(CCCCC2)N1Cc1ccco1` belongs inactive: 111%. As to `COc1ccc(OC)c(CNC(=O)CCCn2c(=O)c3cccn3c3cccnc32)c1`, the survival was inactive: 97%. To `CCOc1ccccc1NC(=O)Cn1c(=O)n(Cc2ccc(OC)cc2)c(=O)c2oc3ccccc3c21` belongs inactive: 63%; to `Cc1cc(C)cc(NC(=O)CSc2c(C(C)C)cnc3c2c(=O)n(C)c(=O)n3C)c1`, inactive: 67%; to `Cc1cc(C)cc(Nc2cc(C(=O)NC3CCCCC3)c3ccccc3n2)c1`, inactive: 116%. Regarding `CCCCc1ccc(C(=O)Nc2ccc3nc(N4CCN(CC)CC4)cc(C)c3c2)cc1`, the survival was active: 36%.

In the case of `Cc1ccc(Nc2ncnc3ccccc23)cc1`, the survival is inactive: 109%. To `CCOC(=O)c1ccccc1NC(=O)CSc1nnc(CC)n2c1cc1occc12` belongs inactive: 63%; to `COc1ccc(C)cc1NC(=O)c1cc(S(=O)(=O)N2CCC(C)CC2)ccc1F`, inactive: 98%. To `Fc1ccc(-c2cc3ncc4c(n3n2)-c2cc(Cl)ccc2OC4)cc1` belongs inactive: 65%. To `CCOC(=O)c1cc(C)n(CC2CCC(C(=O)Nc3ccc(OC)cc3)CC2)c1C` (stereo unspecified) belongs inactive: 105%.

For the compound `COc1ccc(CCNc2ncnc3c2c(-c2ccccc2)cn3-c2ccc(Cl)cc2)cc1OC`, the survival is inactive: 97%. To `CCOC(=O)CSc1nc2ccc(NC(=O)c3ccc(Cl)cc3)cc2s1` belongs inactive: 83%. As to `COC(=O)c1ccc(NC(=O)C2CCN(c3ncnc4c3nc3n4CCCCC3)CC2)cc1`, the survival is inactive: 84%. To `COc1cc(CN(C(=O)c2ccc(OC(C)C)cc2)c2ccccn2)cc(OC)c1OC` belongs inactive: 102%. In the case of `Cc1ccc(NC(=O)CN2C(=O)C(c3ccc(F)cc3)=NC23CCCCCC3)c(C)c1` it was inactive: 85%; in that of `CCCCOc1ccc(C2C(=O)N(C3CCCCC3)CC(=O)N2C2CCCCC2)cc1` (stereo unspecified), inactive: 94%. In the case of `Cc1ccc(NC(=O)C2CCN(S(=O)(=O)c3cccc4nsnc34)CC2)cc1` it was inactive: 94%; in that of `CCn1cc(C(=O)OCC(=O)Nc2cc(Cl)ccc2C)c(=O)c2ccc(C)nc21`, inactive: 74%. On to `O=S(=O)(c1ccc(S(=O)(=O)N2CCC3(CC2)OCCO3)cc1)N1CCCC1`, for which the survival was inactive: 91%. In the case of `CC1CCN(S(=O)(=O)c2ccc3nc(NCc4ccc(N(C)C)cc4)ccc3c2)CC1`, the survival is inactive: 65%. For `CCc1cccc(NC(=O)Cn2c(=O)n(CCCCCC(=O)NCc3ccc(F)cc3)c(=O)c3sccc32)c1`, the survival was inactive: 63%. In the case of `Nc1nonc1-c1nc2ccccc2n1CCn1c(-c2nonc2N)nc2ccccc21` it was inactive: 82%; in that of `CCN(Cc1ccccc1)C(c1ccccn1)c1nnnn1C1CCCCC1` (stereo unspecified), inactive: 96%. As to `CCOC(=O)N1CCc2c(sc3c2c(=O)n(-c2ccc(CC)cc2)c(=O)n3Cc2cccc(Cl)c2)C1`, the survival is inactive: 70%. To `Cc1ccc(C)c(N2CCN(C(=O)C3CCC(CNS(=O)(=O)c4cccs4)CC3)CC2)c1` (stereo unspecified) belongs inactive: 78%; to `CCC1CN(C(=O)N2CCC(C(=O)NCCc3ccc(OC)c(OC)c3)CC2)c2ccccc2O1` (stereo unspecified), inactive: 74%. To `Cc1ccc(CNC(=O)CSc2c(C)cnc3c2c(=O)n(C)c(=O)n3C)cc1` belongs inactive: 83%; to `CC1=C(c2ccc(C)c(C)c2)S(=O)(=O)N(Cc2ccc(C(=O)NCc3ccccc3F)cc2)C1=O`, inactive: 75%. Take `COc1ccc(-c2cc(C(F)(F)F)n3nc(C)c(-c4ccccc4)c3n2)cc1OC`: the survival was active: 69%. In the case of `O=C(CCc1cn(Cc2ccc(F)cc2)c2ccccc12)NC1CCCCC1` it was inactive: 79%; in that of `COc1ccc(C2C=C(c3ccccc3)Nc3nc(NC(C)=O)nn32)cc1` (stereo unspecified), inactive: 53%; in that of `CCn1nc(C)c2c(-c3ccccc3)cc(=O)n(C(C)C(=O)Nc3ccc(OC)c(OC)c3)c21` (stereo unspecified), inactive: 72%.

`Cc1cccc(NC(=O)Nc2cccs2)c1C`: the survival was inactive: 93%. In the case of `CCOC(=O)c1ccccc1NC(=O)CN(c1ccccc1)S(=O)(=O)c1ccc(OCC)cc1` it was inactive: 72%; in that of `CCCCCCc1c(C)c2c(cc(C)c3c(C)coc32)oc1=O`, inactive: 91%. In the case of `COc1ccc(-c2cn3c(c2C)-c2ccc(C)n2CC3)cc1` it was inactive: 91%; in that of `Cc1ccc(C)c(NC(=O)Cn2ncc3c(C)n(Cc4ccc(F)cc4)c(C)c3c2=O)c1`, inactive: 71%; in that of `Cc1cc(C)c(NC(=O)Cn2c(=O)n(CCC(C)C)c(=O)c3cccnc32)c(C)c1`, inactive: 81%. In the case of `COc1ccc(-c2nn(C)c3sc(C(=O)NCCN(C)C)cc23)cc1OC` it was inactive: 96%; in that of `COc1ccc(CNC(=O)CN2N=C(c3ccc(Cl)cc3)CCC2=O)cc1`, inactive: 119%.

Regarding `CCc1ccc(C(=O)c2cn(CC(=O)NCCc3ccccc3)c3nc(C)ccc3c2=O)cc1`, the survival was inactive: 67%. In the case of `COc1ccc(C(=O)CC2(O)C(=O)N(Cc3ccccc3)c3ccc(Br)cc32)cc1` (stereo unspecified) it was inactive: 50%. To `O=C(O)Cn1ccc(=O)[nH]c1=O` belongs inactive: 96%. In the case of `COc1cccc(NC(=O)C2CCCN(c3ncnc4onc(-c5ccc(F)cc5)c34)C2)c1` (stereo unspecified) it was inactive: 69%. As for `CCOC(=O)c1c(Nc2ccc(C)c(C)c2)nnc(-c2ccccc2)c1-c1ccccc1`, the survival is active: -5%. To `CCC1CCCCN1CCCNC(=O)c1ccc2c(c1)c(C)c(C)n2CC` (stereo unspecified) belongs inactive: 71%; to `Cc1ccc(C)c(OCC(=O)Nc2sc3c(c2C#N)CCCC3)c1C`, inactive: 49%.
